Data from PMC10933316.
These are yes or no findings as the source states them, for the method shown. In cells and extracts the contact can be indirect. Some results given as binding are weak or reduced against the parent protein; the word gives no strength. Blank lines part the entries; values can stand above or below the molecule they belong to.

Amino acid sequences for entries named in this document (tags omitted).
UniProt Q6PDQ2: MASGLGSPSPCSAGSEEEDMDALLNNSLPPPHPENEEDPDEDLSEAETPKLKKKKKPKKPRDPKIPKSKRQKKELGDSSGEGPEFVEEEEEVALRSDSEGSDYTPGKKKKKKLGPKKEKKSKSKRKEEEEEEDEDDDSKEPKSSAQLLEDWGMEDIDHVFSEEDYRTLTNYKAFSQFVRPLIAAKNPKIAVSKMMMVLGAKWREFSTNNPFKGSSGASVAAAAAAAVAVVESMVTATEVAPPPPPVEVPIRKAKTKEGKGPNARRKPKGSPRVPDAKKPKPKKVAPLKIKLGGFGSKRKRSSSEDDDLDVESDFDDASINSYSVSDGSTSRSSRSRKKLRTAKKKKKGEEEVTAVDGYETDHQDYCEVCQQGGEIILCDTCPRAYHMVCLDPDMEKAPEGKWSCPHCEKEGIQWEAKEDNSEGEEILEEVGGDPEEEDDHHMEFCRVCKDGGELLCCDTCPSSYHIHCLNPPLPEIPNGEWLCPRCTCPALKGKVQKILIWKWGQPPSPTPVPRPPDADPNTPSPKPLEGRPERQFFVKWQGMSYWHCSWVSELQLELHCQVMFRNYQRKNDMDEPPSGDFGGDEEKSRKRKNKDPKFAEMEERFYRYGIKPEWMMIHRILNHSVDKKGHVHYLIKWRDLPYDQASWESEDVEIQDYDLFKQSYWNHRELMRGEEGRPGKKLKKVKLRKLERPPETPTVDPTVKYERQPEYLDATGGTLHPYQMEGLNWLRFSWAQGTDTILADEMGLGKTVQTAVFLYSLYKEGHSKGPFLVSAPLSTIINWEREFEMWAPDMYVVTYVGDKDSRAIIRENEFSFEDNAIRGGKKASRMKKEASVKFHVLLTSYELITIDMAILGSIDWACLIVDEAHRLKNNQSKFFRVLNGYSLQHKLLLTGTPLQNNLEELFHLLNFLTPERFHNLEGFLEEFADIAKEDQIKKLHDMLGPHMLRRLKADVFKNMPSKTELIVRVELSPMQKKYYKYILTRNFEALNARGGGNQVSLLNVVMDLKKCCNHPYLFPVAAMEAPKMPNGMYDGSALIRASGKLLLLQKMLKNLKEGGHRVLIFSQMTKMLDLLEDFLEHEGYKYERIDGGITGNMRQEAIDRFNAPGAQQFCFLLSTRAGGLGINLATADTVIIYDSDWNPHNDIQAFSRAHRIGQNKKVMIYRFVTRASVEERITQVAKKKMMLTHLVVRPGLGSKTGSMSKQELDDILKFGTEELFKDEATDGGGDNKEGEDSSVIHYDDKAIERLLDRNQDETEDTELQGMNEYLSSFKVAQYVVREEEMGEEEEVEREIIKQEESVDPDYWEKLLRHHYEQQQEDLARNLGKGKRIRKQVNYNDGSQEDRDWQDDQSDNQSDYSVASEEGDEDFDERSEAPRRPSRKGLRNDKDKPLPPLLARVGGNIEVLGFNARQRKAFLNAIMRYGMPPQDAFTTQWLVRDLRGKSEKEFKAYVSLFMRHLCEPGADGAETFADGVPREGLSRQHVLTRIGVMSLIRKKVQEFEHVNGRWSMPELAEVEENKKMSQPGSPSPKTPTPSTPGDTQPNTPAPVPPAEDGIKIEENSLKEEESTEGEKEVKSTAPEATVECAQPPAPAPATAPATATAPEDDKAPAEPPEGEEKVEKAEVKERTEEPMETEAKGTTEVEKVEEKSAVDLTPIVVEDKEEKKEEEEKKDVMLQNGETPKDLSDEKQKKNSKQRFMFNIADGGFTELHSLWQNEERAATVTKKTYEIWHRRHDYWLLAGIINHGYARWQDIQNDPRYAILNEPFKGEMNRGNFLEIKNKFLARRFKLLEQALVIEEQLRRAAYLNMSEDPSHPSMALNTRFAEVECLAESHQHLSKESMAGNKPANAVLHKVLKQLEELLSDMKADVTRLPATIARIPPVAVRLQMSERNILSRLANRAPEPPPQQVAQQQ
UniProt Q9D4H8: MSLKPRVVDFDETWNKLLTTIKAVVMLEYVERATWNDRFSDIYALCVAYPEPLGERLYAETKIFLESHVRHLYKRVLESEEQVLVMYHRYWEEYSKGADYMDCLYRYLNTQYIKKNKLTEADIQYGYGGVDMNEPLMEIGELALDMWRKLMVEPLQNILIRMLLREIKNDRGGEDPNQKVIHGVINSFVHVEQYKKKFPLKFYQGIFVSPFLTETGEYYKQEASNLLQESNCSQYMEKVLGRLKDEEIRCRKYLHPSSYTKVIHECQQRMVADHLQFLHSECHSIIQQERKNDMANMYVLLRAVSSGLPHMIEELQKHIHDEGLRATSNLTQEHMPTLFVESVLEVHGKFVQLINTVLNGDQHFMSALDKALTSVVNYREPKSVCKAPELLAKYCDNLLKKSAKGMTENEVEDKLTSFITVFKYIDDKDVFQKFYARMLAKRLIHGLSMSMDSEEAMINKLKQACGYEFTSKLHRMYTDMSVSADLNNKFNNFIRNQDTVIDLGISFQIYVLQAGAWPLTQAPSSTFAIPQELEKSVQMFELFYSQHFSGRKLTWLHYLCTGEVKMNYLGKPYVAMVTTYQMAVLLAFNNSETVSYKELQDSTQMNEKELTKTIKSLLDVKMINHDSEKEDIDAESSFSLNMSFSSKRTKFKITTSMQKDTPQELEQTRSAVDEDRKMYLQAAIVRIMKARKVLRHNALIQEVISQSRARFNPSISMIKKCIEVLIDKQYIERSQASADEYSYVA

Assays:
[1] = molecular target: T1, H/F-PRAMEL7WT (ESC line) (mouse) (UniProt Q810Y8); assay: co-IP; HA-IP from ESC + H/F-PRAMEL7WT and ESC + H/F-PRAMEL7ΔN lines; Western blot for PRAMEL7, CUL2 and neddylated CUL2
T1 sequence: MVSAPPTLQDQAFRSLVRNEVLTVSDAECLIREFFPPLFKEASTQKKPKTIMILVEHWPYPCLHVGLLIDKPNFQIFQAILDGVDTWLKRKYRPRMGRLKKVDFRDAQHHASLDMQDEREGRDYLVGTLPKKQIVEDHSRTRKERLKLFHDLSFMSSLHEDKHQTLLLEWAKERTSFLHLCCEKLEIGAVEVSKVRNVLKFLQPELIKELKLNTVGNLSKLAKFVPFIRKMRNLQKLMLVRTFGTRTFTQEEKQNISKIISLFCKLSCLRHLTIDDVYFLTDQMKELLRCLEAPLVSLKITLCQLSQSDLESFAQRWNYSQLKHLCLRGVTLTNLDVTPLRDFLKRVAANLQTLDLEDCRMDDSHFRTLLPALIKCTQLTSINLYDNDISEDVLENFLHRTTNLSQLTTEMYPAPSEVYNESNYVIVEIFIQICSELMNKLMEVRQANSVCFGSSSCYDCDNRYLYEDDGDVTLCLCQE

[2] = molecular target: T2, H/F-PRAMEL7ΔN (ESC line) (mouse) (UniProt Q810Y8); assay: as above
T2 sequence: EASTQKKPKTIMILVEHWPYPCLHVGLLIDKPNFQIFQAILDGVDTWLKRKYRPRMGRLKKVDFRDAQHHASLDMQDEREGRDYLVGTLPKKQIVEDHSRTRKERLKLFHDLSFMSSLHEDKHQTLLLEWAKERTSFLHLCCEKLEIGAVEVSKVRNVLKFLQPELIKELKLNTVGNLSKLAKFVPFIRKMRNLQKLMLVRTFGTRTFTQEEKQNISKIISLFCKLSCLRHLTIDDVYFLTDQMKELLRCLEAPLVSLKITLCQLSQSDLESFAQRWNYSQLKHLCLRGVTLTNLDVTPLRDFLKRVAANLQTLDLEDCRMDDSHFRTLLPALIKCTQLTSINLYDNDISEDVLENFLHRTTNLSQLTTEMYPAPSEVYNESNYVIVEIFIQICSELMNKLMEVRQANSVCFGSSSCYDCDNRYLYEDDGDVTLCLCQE

[3] = molecular target: CHD4 (mouse (endogenous in ESCs)) (UniProt Q6PDQ2); assay: co-IP; CHD4-IP of chromatin of ESC + H/F-PRAMEL7; Western blot for CHD4, CUL2 and PRAMEL7

binding [1]: binds | binding [2]: no binding
Molecule: Cullin2 (CUL2), endogenous in mouse ESCs (from UniProt Q9D4H8 1-745)

binding [1]: binds | binding [2]: no binding
Molecule: neddylated CUL2, endogenous in mouse ESCs (from UniProt Q9D4H8 1-745)

binding [3]: binds
B1: H/F-PRAMEL7WT (ESC line) (protein, UniProt Q810Y8 1-479)
chain: T1 sequence
